Data from paper PMC12136788.
The other results are listed elsewhere or left out.

T1: UNK ZnF1-3 (human, UniProt Q9C0B0 31-174)
T1 sequence: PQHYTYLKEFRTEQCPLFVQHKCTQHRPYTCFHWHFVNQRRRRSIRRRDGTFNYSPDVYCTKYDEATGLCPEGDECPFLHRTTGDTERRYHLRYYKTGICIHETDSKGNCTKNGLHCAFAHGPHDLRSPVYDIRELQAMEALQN

B1: chr16:45382771:45382772:-_ENSMUSG00000022661_ENSMUST00000163230|mus_mus|mus_mus_mus_hu_True|58_88 (ssRNA)
RNA: GGGAGUUCUACAGUCCGACGAUCCUGGGUCAUGUUAUAAGACAAAUGGAUAGGGAGGGCAUGCUUCUCAAAAAAUGUGAACUACUCUCUAAGACUAACAAUAUUUAUCUAGCUAUAAAAAUAAGUUAAAUGAAUAAGUUAAGACAACAGAGGAUUGAGCAUCA
B2: chr15:66793332:66793333:-_ENSG00000174444_ENST00000568588|hu_hu|FALSE|FALSE (ssRNA)
RNA: GGGAGUUCUACAGUCCGACGAUCCAUGGGAAGAUUGUAGUUACUCUUGAGGGAAGCGGCUUUACGCCAAGUGCCGUACAAUUCAUCUAACUUCCGGAAAGCACUUUCAGUCCAAAUGCAGAAACGUCCCACAUGCCCACCAGGCAACAGAGGAUUGAGCAUCA
B3: chr9:79616815:79616816:-_ENSMUSG00000032328_ENSMUST00000034878|mus_hu|motif|central (ssRNA)
RNA: GGGAGUUCUACAGUCCGACGAUCAAGACACCUGAACAUAGCAAAAUUAAUUUUGUUCAUUUUUAUUAACAUAGGACAUACGGACCAAAUAUUAUCAUUUAAUAAAAUCAACGUUACAAAGAAACUCACUAGCAAAUAAACAAACAACAGAGGAUUGAGCAUCA
B4: chr4:76721835:76721836:+_ENSG00000138768_ENST00000264904|hu_mus|hu_hu_hu_mus_True|1_68 (ssRNA)
RNA: GGGAGUUCUACAGUCCGACGAUCGUUUGGCUGGGGUUUCUGAGACGCUCUGGAAUAUAACUCAUGUUGCUAAUAAAAUCCUAGUUUCUCUAUGAAAUUCUCUUUGCCAAUCCUCUUCUCUAUUAGUUGCUUUAGUUCUCUUUCCAACAGAGGAUUGAGCAUCA
B5: chr18:21054979:21054980:+_ENSG00000101782_ENST00000339486|hu_mus|motif|central (ssRNA)
RNA: GGGAGUUCUACAGUCCGACGAUCCUUUACUUCUUUUAAUUUAGGGGCUGGAACUUGAUCAUGGCCAAUGAAAGACAUAACGGAAAUGUGCUUCUUAAGCAGUACAACUGUUGGACAAGGAAUUCCAGCCUUCUGCAUUCUUGUCAACAGAGGAUUGAGCAUCA
B6: chr16:94664741:94664742:+_ENSMUSG00000040785_ENSMUST00000117648|mus_hu|mus_mus_mus_hu_False|58_98 (ssRNA)
RNA: GGGAGUUCUACAGUCCGACGAUCUGGUACUGAUCUUUGCAUUGGAUAUUCAGGAGAAAGGCUGGCCAAGGGUGUAUAAAUGCUAGUGUACUGGGGCAAACCUGGUAACACGUUUAUGUAUGCUGGCGGUGUCUGGGUGAUAUCCAACAGAGGAUUGAGCAUCA

molecular target: T1, UNK ZnF1-3; assay: nsRBNS (natural sequence RNA bind-n-seq); RBNS binding buffer (assumed for nsRBNS): 25 mM Tris pH 7.5, 150 mM KCl, 3 mM MgCl2, 0.01% Triton X-100, 500 ug/ml BSA, 20 U/ml SUPERase-In, 4 C; UNK is unkempt and MSI1 is Musashi-1; names of the RNAs are library labels; protein concentration not given here; high values mean tight binding

| Binder | binding signal |
| --- | --- |
| B1 | 1.86 enrichment R |
| B2 | 1.08 enrichment R |
| B3 | 2 enrichment R |
| B4 | 0.542 enrichment R |
| B5 | 0.811 enrichment R |
| B6 | 0.911 enrichment R |
